# Among all 2,700 compounds or so, about 160 (5.9%) showed an effect of 50% or more. Some of the results follow.
# Molecular target: Nonstructural protein 3 (Zika virus) (UniProt A0A024AXB9)
# [1] = PRVABC59, Concentration 15.0 uM, Number of replicates 1.0
# [2] = PRVABC59, Concentration 10.0 uM, Number of replicates 1.0
# [3] = PRVABC59, Concentration 50.0 uM, Number of replicates 1.0
# Sequence of UniProt A0A024AXB9 (A0A024AXB9 as listed by the source): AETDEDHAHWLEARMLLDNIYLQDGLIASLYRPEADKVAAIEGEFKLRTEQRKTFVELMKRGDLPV
structure (smiles),measurement,setting,value
O=C(Nc1c(F)cc(F)cc1[N+](=O)[O-])c1cc(Cl)ccc1NS(=O)(=O)c1ccc(Oc2ccccc2Cl)cc1,inhibition,[1],25.4%
Cc1cc(CO)c2cccc(Cc3ccccc3C(=O)N3CCC(CN)CC3)c2n1,inhibition,"PRVABC59, Concentration 49.95 uM, Number of replicates 2.0, Standard deviation 5.668177927575499 %",56.2%
same,inhibition,"PRVABC59, Concentration 99.9 uM, Number of replicates 2.0, Standard deviation 1.410491152712613 %",37.7%
NCc1cccc(NC(=O)[C@@H](Cc2cccc(O)c2)NC(=O)OCc2ccccc2)c1,inhibition,"PRVABC59, Concentration 49.5 uM, Number of replicates 2.0, Standard deviation 0.7577896519997772 %",0.191%
same,inhibition,"PRVABC59, Concentration 99.01 uM, Number of replicates 2.0, Standard deviation 1.3701999456479566 %",3.77%
same,inhibition,"PRVABC59, Concentration 198.0 uM, Number of replicates 2.0, Standard deviation 0.9267930143647316 %",15.2%
COc1cc(Cc2ccc(S(=O)(=O)NCCO)cc2)nc(N2CCNCC2)n1,inhibition,"PRVABC59, Concentration 49.5 uM, Number of replicates 2.0, Standard deviation 0.7839568389991296 %",-2.58%
same,inhibition,"PRVABC59, Concentration 99.01 uM, Number of replicates 2.0, Standard deviation 1.7255130936071057 %",-0.643%
same,inhibition,"PRVABC59, Concentration 198.0 uM, Number of replicates 2.0, Standard deviation 0.6728289178800314 %",3.38%
N#Cc1ccc(Cl)c(NC(=O)c2cc(Cl)ccc2NS(=O)(=O)c2ccc(Oc3ccccc3Cl)cc2)c1,inhibition,[1],32.9%
O=Cc1ccc(N2CCC(C(=O)NCc3ccc(OC(F)(F)F)cc3)CC2)cc1,inhibition,[2],12.6%
O=C1NCCN(C(=O)c2cc(Cl)ccc2NS(=O)(=O)c2ccc(Oc3ccccc3Cl)cc2)[C@H]1c1ccccc1,inhibition,[1],-8.05%
O=C(c1c[nH]c2ccccc12)N1CCC(c2c[nH]c3cccnc23)CC1,inhibition,"PRVABC59, Concentration 49.5 uM, Number of replicates 2.0, Standard deviation 1.2524802574217546 %",1.92%
same,inhibition,"PRVABC59, Concentration 99.01 uM, Number of replicates 2.0, Standard deviation 1.5169790429854497 %",7.55%
same,inhibition,"PRVABC59, Concentration 198.0 uM, Number of replicates 2.0, Standard deviation 1.2965638379154212 %",15.2%
CN(Cc1ccccc1NC(=O)C1CCN(c2ccc(C=O)cc2)CC1)C1CCCCC1,inhibition,[3],22.9%
CCS(=O)(=O)c1ccccc1C(=O)Nc1ccncc1C,inhibition,"PRVABC59, Concentration 49.5 uM, Number of replicates 2.0, Standard deviation 0.06053560280989412 %",-1.25%
same,inhibition,"PRVABC59, Concentration 99.01 uM, Number of replicates 2.0, Standard deviation 0.855906735616441 %",-0.715%
same,inhibition,"PRVABC59, Concentration 198.0 uM, Number of replicates 2.0, Standard deviation 0.507826787651883 %",1.36%
O=Cc1ccc(N2CCC(C(=O)NCc3c(F)cc(F)c(F)c3F)CC2)cc1,inhibition,[2],22.5%
O=C(NCc1ccsc1Br)c1cc(Cl)ccc1NS(=O)(=O)c1ccc(Oc2ccccc2Cl)cc1,inhibition,[1],31.5%
O=C(Nc1ccc(I)cn1)c1cc(Cl)ccc1NS(=O)(=O)c1ccc(Oc2ccccc2Cl)cc1,inhibition,[1],23.3%
Cc1nc([C@H]2CCCNC2)[nH]c1C(=O)N1CCN([C@H](C)C(=O)NC2CCCC2)CC1,inhibition,"PRVABC59, Concentration 49.5 uM, Number of replicates 2.0, Standard deviation 0.07150541595291557 %",-1.61%
same,inhibition,"PRVABC59, Concentration 99.01 uM, Number of replicates 2.0, Standard deviation 1.2278500184736247 %",-1.24%
same,inhibition,"PRVABC59, Concentration 198.0 uM, Number of replicates 2.0, Standard deviation 2.2697859891871475 %",0.669%
O=Cc1ccc(N2CCC(C(=O)N3CCC(C(=O)NCCO)CC3)CC2)cc1,inhibition,[3],24.8%
O=C(c1cccn2ccnc12)N1CC[C@H](c2c[nH]c3ccccc23)C1,inhibition,"PRVABC59, Concentration 49.5 uM, Number of replicates 2.0, Standard deviation 4.127142833232607 %",3.2%
same,inhibition,"PRVABC59, Concentration 99.01 uM, Number of replicates 2.0, Standard deviation 3.445762804478474 %",5.35%
same,inhibition,"PRVABC59, Concentration 198.0 uM, Number of replicates 2.0, Standard deviation 0.6813803448554978 %",7.26%
O=C(Nc1cc(Cl)cc(Cl)c1O)c1cc(Cl)ccc1NS(=O)(=O)c1ccc(Oc2ccccc2Cl)cc1,inhibition,[1],74.3%
CNC(=O)[C@H]1CCN(S(=O)(=O)c2ccc(Oc3ccccc3Cl)cc2)C1,inhibition,"PRVABC59, Concentration 49.5 uM, Number of replicates 2.0, Standard deviation 2.3503648629811855 %",6.33%
same,inhibition,"PRVABC59, Concentration 99.01 uM, Number of replicates 2.0, Standard deviation 2.692773952478603 %",8.32%
same,inhibition,"PRVABC59, Concentration 198.0 uM, Number of replicates 2.0, Standard deviation 0.3043636351088153 %",5.71%
Cc1nc(Br)ccc1NC(=O)c1cc(Cl)ccc1NS(=O)(=O)c1ccc(Oc2ccccc2Cl)cc1,inhibition,[1],21.8%
Cc1ccc(CNC(=O)c2cc(Cl)ccc2NS(=O)(=O)c2ccc(Oc3ccccc3Cl)cc2)cc1Cl,inhibition,[1],23%
